Reference: PubChem BioAssay AID1963576 (National Center for Advancing Translational Sciences (NCATS), 2024)
The campaign covered roughly 46,000 compounds. About 60 (0.1%) were called active. Not shown: some 3% with an inconclusive outcome. Calls come from the whole dose curve; as a rule, active = well fitted inhibition curve with a large enough effect; inconclusive = small, poorly fitted or top-dose-only effect; inactive = no such curve, though single readings can be large or run the other way. The list shows a part of the results.
Potency is the fitted concentration of half-maximal effect.

Assay: Primary qHTS assay for Inhibitors of ovarian cancer metastasis using an organotypic tumor microenvironment (TME) model.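 For Potency: count of GFP cancer cells still attached after washing and fixation.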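 For activity change, negative = inhibition: plate controls were DMSO wells for no effect and tomatine positive control wells for full effect.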 Note: nearly all actives have a fitted effect of over 65% in size.
Conditions: SKOV3ip1-GFP adhesion/invasion on 3D omental model, fluorescence; series mostly up to 45.8 µM; activity change, negative = inhibition: at the top concentration
Procedure, shortened: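 Adhesion/invasion was scored as fixed GFP-labeled SKOV3ip1 cell counts (488/509 nm), normalized to DMSO and tomatine controls. Cancer cells in serum-free medium, with four compound doses (0.36-46 umol/L), sat 2 hr at RT then 16 hr at 37 C on a 48 hr fibroblast/mesothelial/ECM culture.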
In the case of `Cc1c(C)c2c(cc(C)c3c(-c4ccccc4)coc32)oc1=O`, the “activity change, negative = inhibition” value is reported as inactive: 6.67%. For `O=C(NC1CC(=O)N(c2cccc(F)c2)C1)C1CCCC1` (configuration not stated), the “activity change, negative = inhibition” value was inactive: 3.58%. With `COc1ccc2oc(=O)c(-c3csc(-c4ccc(Br)cc4)n3)cc2c1` the “activity change, negative = inhibition” value was inactive: -17.4%. For `Cc1ccccc1-c1nc(SCC(=O)NCc2ccco2)c2c(=O)n(C)c(=O)n(C)c2n1`, the “activity change, negative = inhibition” value was inactive: -17.5%. For `CC(=O)N1CCOc2cc(S(=O)(=O)NCc3ccc(C)cc3)c(Cl)cc21`, the “outcome” value was “inactive”. In the case of `COc1ccc(-c2csc3nc(-c4ccccc4C)oc(=O)c23)cc1OC`, the “activity change, negative = inhibition” value is reported as inactive: 3.13%. With `Cc1ccc(NC(=O)C2CCN(S(=O)(=O)c3c(C)noc3C)CC2)c(C)c1` the “activity change, negative = inhibition” value was inactive: -3.29%. In the case of `O=C(/C=C\c1ccc2c(c1)OCO2)NC1CC(=O)N(c2ccc(Cl)cc2)C1` (configuration not stated), the “activity change, negative = inhibition” value is reported as inactive: -6.25%. For `COc1ccc(C2(Nc3cccc(C(=O)O)c3C)C(=O)c3ccccc3C2=O)cc1`, the “outcome” value was “inactive”. For `O=C(Cc1cccs1)NC1CC(=O)N(c2cccc(F)c2)C1` (configuration not stated), the “activity change, negative = inhibition” value was inactive: -3.9%. For `CCOC(=O)c1c(C)oc2ncnc(N3CCN(c4ccccc4F)CC3)c12`, the “activity change, negative = inhibition” value was inactive: -22.7%. For `CCSc1nc(-c2ccccc2OC)nc2c1Cc1c(CO)cnc(C)c1O2`, the “outcome” value was “inactive”. For `COc1ccc(NC(=O)CSc2oc(-c3cccs3)nc2S(=O)(=O)c2ccc(C)cc2)c(OC)c1`, the “activity change, negative = inhibition” value was inactive: 1.16%. For `CCOc1ccccc1NC(=O)c1cc(=O)c2ccc(C)cc2o1`, the “activity change, negative = inhibition” value was inactive: -0.837%. For `Cc1ccc(OCC(=O)N(c2ccc(C)cc2)S(=O)(=O)c2ccc(Cl)cc2)cc1`, the “activity change, negative = inhibition” value was inactive: 5.56%. In the case of `Cc1ccc2c(CN3CCN(C(=O)c4ccc(F)cc4)CC3)cc(=O)oc2c1`, the “outcome” value is reported as “inactive”. In the case of `CCCCS(=O)(=O)c1oc(-c2cccs2)nc1S(=O)(=O)c1ccccc1`, the Potency is reported as active: 2.51 µM. In the case of `COc1cc2nc(NCCC(C)C)n3nc(-c4ccccc4)nc3c2cc1OC`, the “activity change, negative = inhibition” value is reported as inactive: -7.76%. With `Cc1cc(C)n2c(Nc3ccc(Cl)cc3)c(-c3ccsc3)nc2n1` the “outcome” value was “inactive”. For `COc1cccc(C(=O)Nc2ccc3nc(SCC(=O)N4CCOCC4)sc3c2)c1`, the “activity change, negative = inhibition” value was inactive: -6.97%. In the case of `Cn1c(=O)n(C)c2cc(NS(=O)(=O)c3ccc(F)cc3)ccc21`, the “activity change, negative = inhibition” value is reported as inactive: -6.17%. With `CC(C)(C)c1ccc(C(=O)NCCc2csc3nc(-c4ccccc4F)nn23)cc1` the “activity change, negative = inhibition” value was inactive: 3.35%. With `COc1ccc(C2CC(=O)NC(NC(=O)c3ccc(Br)cc3)=N2)c(OC)c1OC` (configuration not stated) the “activity change, negative = inhibition” value was inactive: -12.3%. With `CSCCC(NS(=O)(=O)c1ccc2c(c1)oc(=O)n2C)C(=O)N1CCN(c2cc(C)ccc2C)CC1` (configuration not stated) the “activity change, negative = inhibition” value was inactive: -15%. In the case of `COc1ccccc1CNC(=O)CN1C(=O)COc2ccc(S(=O)(=O)Nc3ccccc3)cc21`, the “activity change, negative = inhibition” value is reported as inactive: -20.4%. In the case of `O=C(CS(=O)(=O)c1cccc2nsnc12)Nc1ccccc1`, the “outcome” value is reported as “inactive”. In the case of `CCOc1ccccc1NC(=O)CSc1nc(=O)[nH]c2c1CCCC2`, the “activity change, negative = inhibition” value is reported as inactive: 2.01%. In the case of `CCc1c2c(nc3ccc(OC(=O)N4CCC(N5CCCCC5)CC4)cc13)-c1cc3c(c(=O)n1C2)COC(=O)[C@]3(O)CC`, the “activity change, negative = inhibition” value is reported as inactive: -5.46%. In the case of `COc1cc(/C=C/c2nc(C#N)c(N3CCCCCC3)o2)cc(OC)c1OC`, the “activity change, negative = inhibition” value is reported as inactive: 12.5%. With `CCCOc1cccc(NC(=O)c2c(-c3ccccc3Cl)noc2C)c1` the “activity change, negative = inhibition” value was inactive: 5.71%. In the case of `CN(C(=O)CSc1nc2ccc(NC(=O)COc3ccc(Cl)cc3)cc2s1)c1ccccc1`, the “activity change, negative = inhibition” value is reported as inactive: -3.3%. For `O=S(=O)(Nc1ccccc1C(F)(F)F)c1ccc(N2CCCCS2(=O)=O)cc1`, the “activity change, negative = inhibition” value was inactive: -1.15%. In the case of `CN(Cc1ccccc1)C(=O)c1ccc2c(c1)N(Cc1ccccc1F)C(=O)c1ccccc1S2(=O)=O`, the “outcome” value is reported as “inactive”. In the case of `O=C(Nc1cc(-c2nc3ccccc3s2)ccc1Cl)c1cc2ccccc2o1`, the “activity change, negative = inhibition” value is reported as inactive: -8.78%. For `COc1ccc(OC)c(NC(=O)Cn2cnc3ccc(S(=O)(=O)N4CCC(C)CC4)cc3c2=O)c1`, the “outcome” value was “inactive”. In the case of `CC(=O)N(Cc1cccnc1)c1nc2c(F)cc(F)cc2s1`, the “activity change, negative = inhibition” value is reported as inactive: 9.99%. With `Cc1cc(C)c2oc(C(=O)Nc3ccc(S(=O)(=O)N4CCCCC4)cc3)cc(=O)c2c1` the “activity change, negative = inhibition” value was inactive: 1.79%. For `Cc1ccc(Cl)cc1-n1c(=O)cc(N2CCN(c3ccc(F)cc3)CC2)[nH]c1=O`, the “outcome” value was “inactive”. For `Cc1ccc(-c2nc3sc(CCNS(=O)(=O)c4cc(F)ccc4F)c(C)n3n2)cc1`, the “activity change, negative = inhibition” value was inactive: -8.02%. With `COc1ccc(Cl)cc1NS(=O)(=O)c1ccc2[nH]c3c(c2c1)CCCC3` the “activity change, negative = inhibition” value was inactive: 0.821%. In the case of `Cc1cccc(C)c1NC(=O)Cn1c(=O)n(Cc2ccccc2)c(=O)c2c(C)c(C(=O)N(C)C)sc21`, the “outcome” value is reported as “inactive”. In the case of `O=C(O)Cn1nnc(-c2ccc(OCc3cccc(C(F)(F)F)c3)cc2)n1`, the “activity change, negative = inhibition” value is reported as inactive: 5.51%. For `Cn1c(=O)c2c(-c3ccc(Cl)cc3)n(Cc3ccccc3)cc2n(C)c1=O`, the “activity change, negative = inhibition” value was inactive: 8.44%. With `COc1cccc(/C=C/c2nc(C#N)c(NCCN(C)C)o2)c1` the “activity change, negative = inhibition” value was inactive: 1.03%. With `COc1ccc(S(=O)(=O)NCCc2cc3ccc(C)c(C)c3[nH]c2=O)cc1` the “outcome” value was “inactive”. In the case of `COc1ccc(Cn2c(CCC(=O)NCc3cccc(Cl)c3)nc3cccnc32)cc1`, the “activity change, negative = inhibition” value is reported as inactive: -12.1%. In the case of `CCOC(=O)c1[nH]c(C)c(CCC(=O)NCc2ccc(N(C)C)cc2)c1C`, the “activity change, negative = inhibition” value is reported as inactive: -1.36%. For `O=C(CSc1nccn1Cc1ccco1)Nc1ccc(F)cc1`, the “activity change, negative = inhibition” value was inactive: -22.5%. For `COc1ccc(CNC(=O)CSc2nc3ccccc3nc2Cc2ccccc2)cc1`, the “activity change, negative = inhibition” value was inactive: -20.8%. With `COc1cccc(NC(=O)C2CCC(CNS(=O)(=O)c3ccc4c(c3)CC(C)N4C(C)=O)CC2)c1` (configuration not stated) the “activity change, negative = inhibition” value was inactive: -0.395%. For `CCOC(=O)c1cc(S(=O)(=O)Nc2ccc(C)cc2Cl)[nH]n1`, the “activity change, negative = inhibition” value was inactive: 85.5%. With `CCOc1ccc(-c2nn(CC(=O)NC3CCCC3)c3c2cnc2ccc(C)cc23)cc1` the “activity change, negative = inhibition” value was inactive: -8.36%. With `COc1ccc(CCNC(=O)c2ccc3c(c2)N(Cc2ccc(Cl)cc2)C(=O)c2ccccc2S3)cc1OC` the “activity change, negative = inhibition” value was inactive: -26.2%. For `Cc1ccc(NC(=O)CCN2CCN(CCO)CC2)cc1C`, the “activity change, negative = inhibition” value was inactive: -0.997%. With `COc1cc(OC)c(NC(=O)c2cc(C)nc3c2c(C)nn3-c2ccc(C)cc2)cc1Cl` the “activity change, negative = inhibition” value was inactive: -14.6%. With `CC(C)CCNC(=O)Nc1ccc2c(c1)N(Cc1ccccc1)C(=O)c1ccccc1S2` the “outcome” value was “inactive”. For `Cc1ccccc1Nc1c(-c2ccc(Br)o2)nc2ccc(Cl)cn12`, the “activity change, negative = inhibition” value was inactive: -9.19%. In the case of `CCc1ccc(NC(=O)Cc2c(C(=O)O)c(C)cn2C)cc1`, the “activity change, negative = inhibition” value is reported as inactive: 19.1%. In the case of `Cc1ccc(S(=O)(=O)CC(=O)Nc2sc3c(c2C(N)=O)CCCC3)cc1`, the “outcome” value is reported as “inactive”. For `CCc1ccc(Oc2c(C(F)(F)F)oc3c(CN4CCC(C)CC4)c(O)ccc3c2=O)cc1`, the “activity change, negative = inhibition” value was inactive: 15.7%. For `CCOC(=O)Cc1ccc(NC(=O)N2CCC(CN3CCCCCC3)CC2)cc1`, the “outcome” value was “inactive”. For `CCOc1ccccc1Nc1nnc(-c2cc3cc(OC)ccc3oc2=O)s1`, the “activity change, negative = inhibition” value was inactive: 7.03%.
